# Measured values taken from PubChem BioAssay AID1745853 (National Center for Advancing Translational Sciences (NCATS), 2022).
# The list shows a part of the results. The main result of the screen is listed elsewhere. These columns were measured beside it and carry no call.
# How the values were obtained:
# Test in all cases: Primary Screen for Target Class Profiling of Small Molecule Inhibitors of Methyltransferases
# [1] = target: Glycine N-methyltransferase (Homo sapiens) (UniProt Q14749); conditions: purified enzyme, MTase-Glo SAH luminescence; measured here: GNMT inhibition; at 40 µM; stronger effect = lower value
# How it was run: (§1)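 Each enzyme was reacted with SAM and its substrate, with compounds tested once at 40 uM; SAH formed was read by MTase-Glo luminescence.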
# [2] = target: Guanidinoacetate N-methyltransferase (Homo sapiens) (UniProt Q14353); conditions: purified enzyme, MTase-Glo SAH luminescence; measured here: GAMT inhibition; at 40 µM; stronger effect = lower value
# How it was run: as §1
# [3] = target: Histamine N-methyltransferase (Homo sapiens) (UniProt P50135); conditions: purified enzyme, MTase-Glo SAH luminescence; measured here: HNMT inhibition; at 40 µM; stronger effect = lower value
# How it was run: as §1
# [4] = target: Nicotinamide N-methyltransferase (Homo sapiens) (UniProt P40261); conditions: purified enzyme, MTase-Glo SAH luminescence; measured here: NNMT inhibition; at 40 µM; stronger effect = lower value
# How it was run: as §1
# [5] = target: Phenylethanolamine N-methyltransferase (Homo sapiens) (UniProt P11086); conditions: purified enzyme, MTase-Glo SAH luminescence; measured here: PNMT inhibition; at 40 µM; stronger effect = lower value
# How it was run: as §1
# % is scaled to controls: 0 for no effect and ±100 for the full control effect.
SMILES,"activity change, negative = inhibition [1]","activity change, negative = inhibition [2]","activity change, negative = inhibition [3]","activity change, negative = inhibition [4]","activity change, negative = inhibition [5]"
COC(=O)c1cc2n(n1)CC(C)(C(=O)NC1CCCCC1)N(c1ccc(C)c(Cl)c1)C2=O (stereo not drawn),6.04%,1.82%,3.98%,9.7%,9.47%
O=C(C1CCC1)N1CCC(Cc2nncn2Cc2ccccc2)CC1,-2.16%,-3.36%,-0.699%,-7.15%,-4.95%
CCCn1c(=O)c2ccc(C(=O)NC(C)CC)cc2n2c(=O)n(CC(=O)c3ccc(Cl)cc3)nc12 (stereo not drawn),9.84%,0.27%,4.05%,1.49%,6.92%
CC1(C)CCC[C@]2(C)[C@H]3CC(=O)O[C@]3(C)CC[C@@H]12,-6.98%,3.11%,-5.73%,-39.2%,-23.6%
Fc1ccc(-c2nc(-c3ccccc3F)[nH]c2-c2ccncc2)cc1,-21.3%,-6.52%,-19.8%,-22.7%,-7%
COCCn1c(=O)c2c(n1Cc1ccccc1)CN(C(=O)Cc1cccc(F)c1)CC2,-0.164%,-2.3%,-1.41%,-5.68%,-1.68%
CC(C)CN(CCCN1C(=O)c2cc3occc3n2CC1(C)C(=O)NC1CCCCCC1)CC(C)C (stereo not drawn),-3.67%,4.65%,-1.15%,5.13%,-2.88%
COc1ccc(S(=O)(=O)Nc2c(C)cc(C)cc2C)cc1,-2.84%,-8.22%,5.18%,-34%,-3.46%
CC(c1c[nH]c2ccccc12)C(O)C(=O)O (stereo not drawn),2.31%,5.01%,6.17%,-6.89%,5.54%
CSc1ccc(CCN2C(=O)CSc3c(c4ccccc4n3C)C2C(=O)NCc2ccccc2)cc1 (stereo not drawn),8.58%,3.97%,3.9%,0.128%,6.75%
COc1cc2c(cc1O)CC[C@H]1[C@@H]2CC[C@]2(C)[C@H](O)CC[C@@H]12,-13.6%,-13.8%,-15.1%,-21.6%,-13.9%
CCOC(=O)CCNC(=O)N1CCCC(c2nc(-c3cnccn3)no2)CCNC(=O)CC1 (stereo not drawn),-3.27%,-5.68%,-0.395%,-6.34%,-2.59%
O=C(CSc1nnc2n(Cc3ccccc3)c(=O)c3ccccc3n12)Nc1ccc(F)cc1F,-3.92%,2.52%,8.94%,-1.93%,1.59%
CCOC(=O)c1cc2n(n1)CC(C)(C(=O)NC1CCCCCC1)N(c1ccc(C)c(C)c1)C2=O (stereo not drawn),-4.55%,0.691%,-4.38%,3.05%,4.2%
O=C(c1ccc(Cl)cc1)N1CCC2(CC1)CC(c1ccccc1)=NO2,-7.83%,-1.4%,0.268%,-5.13%,0.759%
C#CCNC(=O)[C@H]1O[C@H](CCN(C)CC#C)CC[C@@H]1O,-1.27%,-2.38%,-0.244%,-5.27%,0.672%
CC(C)Cn1c(=O)c2cc(F)ccc2n2c(SCc3ccc(F)cc3)nnc12,3.88%,5.18%,11.5%,0.045%,5.99%
CC(=O)Nc1c2n(c3ccc(F)cc13)CC(C)(C(=O)NCCC(C)C)N(Cc1ccccc1F)C2=O (stereo not drawn),5.34%,0%,6.59%,9.78%,4.06%
CCCCCN(CCCCC)C(=O)C(CCC(=O)O)NC(=O)c1ccc(Cl)c(Cl)c1 (stereo not drawn),-2.98%,10.2%,6.93%,-15%,-3.83%
CCCN1C(=O)c2cc(C(=O)NCc3ccc(C)cc3)nn2CC1(C)C(=O)NC1CCCC1 (stereo not drawn),-1.73%,3.21%,-0.766%,1.21%,0.202%
Cc1cccc(CCNC(=O)CCc2nnc3n(CCc4ccccc4)c(=O)c4ccccc4n23)c1,-7.84%,0%,8.14%,-5%,0.494%

SMILES,"activity change, negative = inhibition [1]","activity change, negative = inhibition [2]","activity change, negative = inhibition [3]","activity change, negative = inhibition [4]","activity change, negative = inhibition [5]"
Cc1cc(Nc2cccc(C(F)(F)F)c2)nc2ccc(NC(=O)Cc3ccc(Cl)cc3)cc12,,-11.4%,,-25.3%,-5.83%
CC(C)Oc1ccc(CN2C(=O)c3cc4sccc4n3CC2(C)C(=O)NC2CCCCCC2)cc1 (stereo not drawn),-3.25%,3.33%,3.75%,2.73%,-2.67%
C=C[C@H](/C=C\c1ccc(O)cc1)c1ccc(O)cc1,-3.91%,-4.58%,-1.64%,-18.1%,0.541%
Cc1cc(N2CCOCC2)cc2[nH]c(-c3c(NC[C@@H](O)c4cccc(Cl)c4)cc[nH]c3=O)nc12,-11%,6.82%,-8.82%,-20.6%,0.116%
C[S+](=O)([O-])N1CC2(CCN(Cc3c[nH]c4ccccc34)CC2)Cc2ccccc21,-10.1%,-7.32%,-25.7%,-17.4%,-8.51%
Cn1cnnc1CC1CCN(C(=O)CN2CC(c3ccccc3)CC2=O)CC1 (stereo not drawn),0.432%,0.29%,2.21%,-2.43%,-2.56%
CCCN1C(=O)c2cc(C(=O)NCc3ccc(F)cc3)nn2CC1(C)C(=O)NC1CCCC1 (stereo not drawn),0.069%,3.65%,2.42%,-1.62%,-0.896%
CC(C)NCC(O)c1ccc(O)c(O)c1 (stereo not drawn),-21.9%,-3.25%,-1.93%,-12.9%,-3.38%
O=C1NC2(CN(C(=O)c3ccccc3)C2)Oc2ccccc21,-6.31%,-2.22%,2.5%,-8.24%,1.77%
CCCn1c(=O)c2ccc(C(=O)NC(C)CC)cc2n2c(=O)n(Cc3ccc(C)cc3)nc12 (stereo not drawn),1.42%,0%,2.23%,-2.81%,3.14%
CC1(C(=O)NCc2ccccc2)Cn2c(cc3ccccc32)C(=O)N1Cc1cccc(Br)c1 (stereo not drawn),4.87%,0.354%,4.07%,2.01%,-0.748%
CC1CCC2C(C)(C)C(O)C(O)CC2(C)C12Cc1c(O)cc(CO)c(C=O)c1O2 (stereo not drawn),-1.81%,0.816%,11.6%,-12.3%,-8.93%
Cc1ccccc1OCc1nc(C2CN(C(=O)NC(C)C)C2)no1,-0.243%,0.849%,0.847%,-4.35%,2.6%
CC(C)Cn1c(=O)c2cc(F)ccc2n2c(SCC(=O)Nc3ccc(Cl)cc3)nnc12,3.69%,0%,7.13%,-5.59%,3.83%
COc1ccc(-n2c(=O)[nH]c3cccnc32)cc1OC,-11.8%,-8.44%,-3.55%,-13%,1.38%
NCCSSCCN,-5.94%,7.9%,-11.9%,-2.02%,6.97%
CC1CCC(NC(=O)C2(C)Cn3c(cc4occc43)C(=O)N2Cc2ccccc2Cl)CC1 (stereo not drawn),-7.37%,-1.91%,-1.7%,-15.9%,-4.98%
CC(C)(C)c1cc(C[C@H]2CNCC[C@H]2CC(=O)N2CCC(Cc3ccccc3)CC2)no1,-3.17%,0.666%,-4.73%,-18.5%,14%
CN(C)C(=O)CNC(=O)c1cccc(S(=O)(=O)NCCn2ccnc2)c1,-4.97%,-4.66%,-2.73%,-7.65%,5.2%
Cc1cc(NC2CCCCC2)nc(-n2nc(C)cc2C)n1,-5.67%,6.07%,-2.9%,-7.09%,7.61%
C=CC1C(OC2OC(CO)C(O)C(O)C2O)OC=C(C(=O)OC)C1CC1CC(=O)CC(CCc2ccc(O)cc2)O1 (stereo not drawn),-1.95%,-5.42%,-1.1%,-12.9%,-11.9%

SMILES,"activity change, negative = inhibition [1]","activity change, negative = inhibition [2]","activity change, negative = inhibition [3]","activity change, negative = inhibition [4]","activity change, negative = inhibition [5]"
CC(=O)Nc1c2n(c3ccccc13)CC(C)(C(=O)NCCC(C)C)N(Cc1ccc(F)cc1)C2=O (stereo not drawn),-0.405%,2.61%,5.11%,8.12%,4.25%
CCC1(O)CCC12CCN(C(=O)C1CCCC1)CC2 (stereo not drawn),-3.52%,-5.89%,-1.95%,-6.57%,2.45%
COc1ccc(C(=O)O[C@H]2C=COC=C3C=C4C(=O)N(C)C(=S)C(=O)N4[C@@H]32)cc1Oc1cc(C=O)ccc1O,4.16%,8.58%,10%,-4.57%,6.09%
CC(C)NC(=O)c1nc(-c2ccc([S+](C)(=O)[O-])cc2)c2ccccn12,-3.56%,-2.08%,-1.25%,-1.6%,-4.79%
CC1(C(=O)NC2CCCCCCC2)Cn2c(cc3occc32)C(=O)N1c1cccc(F)c1 (stereo not drawn),2.27%,-6.03%,6.37%,-0.778%,2.69%
CC1(C(=O)NC2CCCCCC2)Cn2c(c(-n3cccc3)c3ccccc32)C(=O)N1CC1CCCO1 (stereo not drawn),1.35%,2.33%,7.7%,-36.1%,2.62%
COc1ccccc1NC(=O)Cn1nc2n(Cc3ccccc3)c(=O)c3ccccc3n2c1=O,1.65%,0.058%,4.32%,-1.99%,-0.376%
Cn1c(=O)c2ccc(C(=O)NC3CCCC3)cc2n2c(=O)n(Cc3ccc(N4CCCC4=O)cc3)nc12,-3.65%,-3.84%,6.44%,-4.97%,-4.91%
COc1ccc(-c2cn3c(n2)CO[C@@H](CNC(=O)CCC(=O)O)C3)cc1,-1.25%,3.38%,-1.15%,-5.46%,-5.88%
Cn1nnnc1SCCNCc1ccc2c(c1)n(C)c(=O)n2C,0.876%,0.147%,1.27%,4.96%,-1.18%
Cc1ccc(CN2C(=O)c3cc4ccccc4n3CC2(C)C(=O)NCCCOC(C)C)cc1 (stereo not drawn),2.2%,1.73%,3.47%,8.66%,-1.68%
Cc1c(F)ccc(C(=O)Nc2cc([N+](=O)[O-])ccc2N2CCN(C)CC2)c1Cl,2.15%,0.454%,4.33%,-13.6%,-4.86%
COc1ncccc1-c1nc(-c2c(C)noc2C)cc2cc(CN(C)C)oc12,-3.72%,-3.3%,-2.09%,-8.35%,-3.58%
CC(C)n1cnc2c(-c3cnc(N)nc3)nc(N3CCOCC3)nc21,8.08%,4.66%,12%,-2.73%,9.21%
CCOC(=O)c1cc2n(n1)CC(C)(C(=O)NC1CCCC1)N(c1ccc(OC)cc1)C2=O (stereo not drawn),-0.229%,2.66%,-2.28%,2.25%,-1.67%
CCC1CN(S(=O)(=O)c2ccc3[nH]c4c(c3c2)CCCC4)c2cc(C)ccc2O1 (stereo not drawn),4.96%,2.43%,-2.67%,-5.84%,2.57%
CCc1ccccc1Nc1nn2c(=O)c3ccc(C(=O)NC4CCCCC4C)cc3nc2s1 (stereo not drawn),4.13%,0%,2.38%,-1.86%,1.89%
CC(C)Cn1c(=O)c2ccc(C(=O)NC3CCCCC3)cc2n2c(=O)n(Cc3ccc(F)cc3)nc12,6.19%,1.82%,4.99%,6.98%,1.69%
Cc1ccc(-c2cc3c(=O)n(CCNC(=O)c4cc(F)ccc4F)ccn3n2)c(C)c1,1.05%,1.99%,1.48%,4.52%,0.471%
